Assay results published in the supplement of paper PMC8728848.
Some of the results follow.

What was measured:
Test in all cases: glycan array binding signal (z-score within array); higher = stronger binding
Details in all cases: glycan notation: IUPAC condensed, linker removed
[1] = target: Gal(b1-4)GlcNAc(b1-3)Gal(b1-4)GlcNAc(b1-6)[Gal(b1-3)]GalNAc
Method in brief: (§1)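 Negative Z-scores can be read as non-binding. The Z-score is calculated within each array and then averaged across arrays of one protein sequence at different concentrations or buffers and across linkers. Arrays, 3228 in all, were curated from the Consortium for Functional Glycomics database and kept only where the protein sequence was available.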

[2] = target: Gal(b1-4)GlcNAc(b1-3)Gal(b1-4)[Fuc(a1-3)]GlcNAc(b1-3)Gal(b1-4)[Fuc(a1-3)]GlcNAc
Method in brief: as §1

[3] = target: Gal(b1-4)GlcNAc(b1-3)GalNAc
Method in brief: as §1

[4] = target: Gal(b1-4)GlcNAc(b1-3)[Fuc(a1-3)GlcNAc(b1-6)]Gal(b1-4)Glc
Method in brief: as §1

[5] = target: Gal(b1-4)GlcNAc(b1-3)[Gal(b1-4)GlcNAc(b1-6)]Gal(b1-4)GlcNAc
Method in brief: as §1

[6] = target: Gal(b1-4)GlcNAc(b1-3)[GlcNAc(b1-6)]Gal(b1-4)GlcNAc
Method in brief: as §1

[7] = target: Gal(b1-4)GlcNAc(b1-6)Gal(b1-4)GlcNAc
Method in brief: as §1

[8] = target: Gal(b1-4)GlcNAc(b1-6)GalNAc
Method in brief: as §1

[9] = target: Gal(b1-4)GlcNAc(b1-6)[Gal(b1-3)]GalNAc
Method in brief: as §1

[10] = target: Gal(b1-4)GlcNAc(b1-6)[Gal(b1-4)GlcNAc(b1-3)]GalNAc
Method in brief: as §1

Gal(b1-4)GlcNAc6P = target: Gal(b1-4)GlcNAc6P
Method in brief: as §1

Gal(b1-6)Gal = target: Gal(b1-6)Gal
Method in brief: as §1

Gal3S(b1-3)GalNAc = target: Gal3S(b1-3)GalNAc
Method in brief: as §1

Gal3S(b1-3)GlcNAc = target: Gal3S(b1-3)GlcNAc
Method in brief: as §1

[11] = target: Gal3S(b1-3)[Fuc(a1-4)]GlcNAc
Method in brief: as §1

Gal3S(b1-4)Glc = target: Gal3S(b1-4)Glc
Method in brief: as §1

Gal3S(b1-4)Glc6S = target: Gal3S(b1-4)Glc6S
Method in brief: as §1

Gal3S(b1-4)GlcNAc = target: Gal3S(b1-4)GlcNAc
Method in brief: as §1

[12] = target: Gal3S(b1-4)[Fuc(a1-3)]Glc6S
Method in brief: as §1

[13] = target: Gal3S(b1-4)[Fuc(a1-3)]GlcNAc
Method in brief: as §1

[14] = target: Gal3S(b1-4)[Fuc(a1-3)]GlcNAc6S
Method in brief: as §1

Gal3S4S(b1-4)GlcNAc = target: Gal3S4S(b1-4)GlcNAc
Method in brief: as §1

Gal3S6S(b1-4)GlcNAc = target: Gal3S6S(b1-4)GlcNAc
Method in brief: as §1

Gal3S6S(b1-4)GlcNAc6S = target: Gal3S6S(b1-4)GlcNAc6S
Method in brief: as §1

Gal4S(b1-4)GlcNAc = target: Gal4S(b1-4)GlcNAc
Method in brief: as §1

Gal4S6S(b1-4)GlcNAc = target: Gal4S6S(b1-4)GlcNAc
Method in brief: as §1

Gal6P(b1-4)GlcNAc = target: Gal6P(b1-4)GlcNAc
Method in brief: as §1

Gal6S(b1-3)GlcNAc = target: Gal6S(b1-3)GlcNAc
Method in brief: as §1

Gal6S(b1-3)GlcNAc6S = target: Gal6S(b1-3)GlcNAc6S
Method in brief: as §1

Gal6S(b1-4)Glc = target: Gal6S(b1-4)Glc
Method in brief: as §1

Gal6S(b1-4)Glc6S = target: Gal6S(b1-4)Glc6S
Method in brief: as §1

Gal6S(b1-4)GlcNAc = target: Gal6S(b1-4)GlcNAc
Method in brief: as §1

Gal6S(b1-4)GlcNAc6S = target: Gal6S(b1-4)GlcNAc6S
Method in brief: as §1

GalNAc(a1-3)Gal = target: GalNAc(a1-3)Gal
Method in brief: as §1

GalNAc(a1-3)GalNAc = target: GalNAc(a1-3)GalNAc
Method in brief: as §1

[15] = target: GalNAc(a1-3)GalNAc(b1-3)Gal(a1-4)Gal(b1-4)Glc
Method in brief: as §1

[16] = target: GalNAc(a1-3)GalNAc(b1-3)Gal(a1-4)Gal(b1-4)GlcNAc
Method in brief: as §1

B1: ClecSol-Fc (Cryptosporidium parvum) (protein)
chain: CPEGWISNGEKTRCFKLVTFDRPRTFSHGFKACNDLGGTEVETRRRNGSKETNEYPVTLASVYKLSDEEAIRRTLVEQGDIHKTANGCFVGLRKYAFFRYPPGWYWIDSGSPVSVRDSEINWTSSYNASWLLRFKFPFEKCGFFDIGGLGRRPCWLIDSELSCAVCGTVAYDSGGLNPNKYSELIKQTDEIISKEPKLDLPGYNNLNCTDAWENNLSVGLCQNVSNILDSAWSSYQSSLNFPSINFNWKEDSTNEGGDQVYHNSYLDLPRYKQKKTFYWDQDPGTIPALSDEMKLIGLSAQPTYHPLDRSSSGSFESDSTESGRANEERNDTLEEMIYKQSSDSIEDILVPVTKPIFSDYSSIGRNSGVEEVYSSNVSTISSKGVVFPNTTTSSDNDFTKNNPANSSKHTSTSTTTNTTTTTTRTTTTTTTTTTTTTTTTTTTTETTTTKKSTTATKNTTTT
[1]
  glycan array binding signal (z-score): -0.168
[2]
  glycan array binding signal (z-score): -0.22
[3]
  glycan array binding signal (z-score): 0.011
[4]
  glycan array binding signal (z-score): -0.171
[5]
  glycan array binding signal (z-score): -0.197
[6]
  glycan array binding signal (z-score): -0.01
[7]
  glycan array binding signal (z-score): -0.095
[8]
  glycan array binding signal (z-score): -0.05
[9]
  glycan array binding signal (z-score): 0.316
[10]
  glycan array binding signal (z-score): -0.187
Gal(b1-4)GlcNAc6P
  glycan array binding signal (z-score): 0.194
Gal(b1-6)Gal
  glycan array binding signal (z-score): -0.075
Gal3S(b1-3)GalNAc
  glycan array binding signal (z-score): -0.101
Gal3S(b1-3)GlcNAc
  glycan array binding signal (z-score): -0.143
[11]
  glycan array binding signal (z-score): 0.035
Gal3S(b1-4)Glc
  glycan array binding signal (z-score): -0.127
Gal3S(b1-4)Glc6S
  glycan array binding signal (z-score): -0.039
Gal3S(b1-4)GlcNAc
  glycan array binding signal (z-score): -0.151
[12]
  glycan array binding signal (z-score): 0.088
[13]
  glycan array binding signal (z-score): 0.021
[14]
  glycan array binding signal (z-score): -0.091
Gal3S4S(b1-4)GlcNAc
  glycan array binding signal (z-score): -0.28
Gal3S6S(b1-4)GlcNAc
  glycan array binding signal (z-score): 0.024
Gal3S6S(b1-4)GlcNAc6S
  glycan array binding signal (z-score): -0.164
Gal4S(b1-4)GlcNAc
  glycan array binding signal (z-score): -0.03
Gal4S6S(b1-4)GlcNAc
  glycan array binding signal (z-score): -0.054
Gal6P(b1-4)GlcNAc
  glycan array binding signal (z-score): -0.086
Gal6S(b1-3)GlcNAc
  glycan array binding signal (z-score): 0.001
Gal6S(b1-3)GlcNAc6S
  glycan array binding signal (z-score): -0.065
Gal6S(b1-4)Glc
  glycan array binding signal (z-score): -0.16
Gal6S(b1-4)Glc6S
  glycan array binding signal (z-score): -0.036
Gal6S(b1-4)GlcNAc
  glycan array binding signal (z-score): -0.208
Gal6S(b1-4)GlcNAc6S
  glycan array binding signal (z-score): -0.197
GalNAc(a1-3)Gal
  glycan array binding signal (z-score): -0.273
GalNAc(a1-3)GalNAc
  glycan array binding signal (z-score): -0.134
[15]
  glycan array binding signal (z-score): -0.27
[16]
  glycan array binding signal (z-score): -0.069
